According to article PMC9127544:
No constants are given. Whether binding was seen depends on the method and setting. In cells and extracts the contact can be indirect. Some binding calls cover weakened binding; strength is not graded here.

Chains of the proteins cited; added tags and fusions are not shown. Lines headed by an entry give the natural chain unless they say otherwise; changes in a name come on top.
UniProt Q3ZCM7: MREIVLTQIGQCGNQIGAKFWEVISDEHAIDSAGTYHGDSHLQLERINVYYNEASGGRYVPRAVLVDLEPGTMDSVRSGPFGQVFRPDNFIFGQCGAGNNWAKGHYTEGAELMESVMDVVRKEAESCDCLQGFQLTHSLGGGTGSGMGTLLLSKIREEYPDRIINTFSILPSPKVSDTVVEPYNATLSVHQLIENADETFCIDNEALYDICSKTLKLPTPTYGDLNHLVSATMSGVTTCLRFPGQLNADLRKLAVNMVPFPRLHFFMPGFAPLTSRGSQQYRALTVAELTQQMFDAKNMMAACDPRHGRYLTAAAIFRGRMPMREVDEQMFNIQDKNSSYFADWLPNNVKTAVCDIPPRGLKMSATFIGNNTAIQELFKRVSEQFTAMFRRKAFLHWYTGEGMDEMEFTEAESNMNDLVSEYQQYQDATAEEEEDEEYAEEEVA
UniProt Q9BTW9: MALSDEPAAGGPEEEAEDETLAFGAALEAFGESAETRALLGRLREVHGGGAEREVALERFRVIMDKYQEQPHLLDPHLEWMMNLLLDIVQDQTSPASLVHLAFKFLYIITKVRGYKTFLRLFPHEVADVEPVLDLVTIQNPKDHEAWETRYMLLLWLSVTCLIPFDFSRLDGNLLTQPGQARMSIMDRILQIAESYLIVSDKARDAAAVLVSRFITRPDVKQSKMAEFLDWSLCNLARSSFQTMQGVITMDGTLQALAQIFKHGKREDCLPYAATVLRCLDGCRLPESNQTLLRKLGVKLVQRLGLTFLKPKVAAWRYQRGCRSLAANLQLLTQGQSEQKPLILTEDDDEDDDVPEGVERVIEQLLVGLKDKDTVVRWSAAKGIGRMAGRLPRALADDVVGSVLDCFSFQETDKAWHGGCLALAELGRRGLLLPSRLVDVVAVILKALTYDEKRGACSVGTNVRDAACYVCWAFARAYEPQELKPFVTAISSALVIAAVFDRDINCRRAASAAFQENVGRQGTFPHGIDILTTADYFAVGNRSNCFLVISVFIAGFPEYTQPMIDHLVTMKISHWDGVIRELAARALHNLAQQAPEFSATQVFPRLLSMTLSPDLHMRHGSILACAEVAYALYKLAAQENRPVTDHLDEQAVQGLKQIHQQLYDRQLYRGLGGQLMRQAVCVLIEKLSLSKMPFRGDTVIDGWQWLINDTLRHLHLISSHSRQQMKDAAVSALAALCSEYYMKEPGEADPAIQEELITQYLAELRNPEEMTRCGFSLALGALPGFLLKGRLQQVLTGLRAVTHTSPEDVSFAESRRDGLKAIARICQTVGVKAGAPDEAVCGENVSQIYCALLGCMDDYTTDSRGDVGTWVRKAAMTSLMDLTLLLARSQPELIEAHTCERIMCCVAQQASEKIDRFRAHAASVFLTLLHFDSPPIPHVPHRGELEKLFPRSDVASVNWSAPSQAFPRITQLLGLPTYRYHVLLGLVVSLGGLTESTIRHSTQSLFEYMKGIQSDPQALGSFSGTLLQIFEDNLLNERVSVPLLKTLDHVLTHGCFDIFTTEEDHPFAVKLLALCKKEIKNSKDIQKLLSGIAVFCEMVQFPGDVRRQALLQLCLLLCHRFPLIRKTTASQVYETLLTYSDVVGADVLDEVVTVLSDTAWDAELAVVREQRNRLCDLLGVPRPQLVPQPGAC

B1: TBCA (protein, UniProt O75347 1-108)
chain: MADPRVRQIKIKTGVVKRLVKEKVMYEKEAKQQEEKIEKMRAEDGENYDIKKQAEILQESRMMIPDCQRRLEAAYLDLQRILENEKDLEEAEEYKEARLVLDSVKLEA

What was measured:
Experiment in all cases: co-IP; HEK293T cells transfected with WT or mutant TUBB8; TBCD and TBCA detected by blot; how the precipitation was done is not described
TUBB8 S176L (human) = TUBB8 S176L (human) (UniProt Q3ZCM7)
wild-type TUBB8 (human) = wild-type TUBB8 (human) (UniProt Q3ZCM7)
TUBB8 A313V (human) = TUBB8 A313V (human) (UniProt Q3ZCM7)

Row | Molecule | binding (TUBB8 S176L (human)) | binding (wild-type TUBB8 (human)) | binding (TUBB8 A313V (human))
1 | TBCD (from UniProt Q9BTW9 1-1192) | binds | binds | –
2 | B1 | no binding | binds | binds
